# Measured values as given in publication PMC4336329 (PLoS ONE, 2015).
# The campaign covered roughly 310,000 compounds. About 2,200 (0.71%) showed an effect of 50% or more. The effect is printed as a negative number. This is one part of the list.
# Biological target: human ether-à-go-go-related gene (hERG) potassium channel (human, UniProt Q12809)
# Assay: primary screen, population patch clamp on CHO cells stably expressing hERG
# Chain of human ether-à-go-go-related gene (hERG) potassium channel (Q12809 whole entry, looked up): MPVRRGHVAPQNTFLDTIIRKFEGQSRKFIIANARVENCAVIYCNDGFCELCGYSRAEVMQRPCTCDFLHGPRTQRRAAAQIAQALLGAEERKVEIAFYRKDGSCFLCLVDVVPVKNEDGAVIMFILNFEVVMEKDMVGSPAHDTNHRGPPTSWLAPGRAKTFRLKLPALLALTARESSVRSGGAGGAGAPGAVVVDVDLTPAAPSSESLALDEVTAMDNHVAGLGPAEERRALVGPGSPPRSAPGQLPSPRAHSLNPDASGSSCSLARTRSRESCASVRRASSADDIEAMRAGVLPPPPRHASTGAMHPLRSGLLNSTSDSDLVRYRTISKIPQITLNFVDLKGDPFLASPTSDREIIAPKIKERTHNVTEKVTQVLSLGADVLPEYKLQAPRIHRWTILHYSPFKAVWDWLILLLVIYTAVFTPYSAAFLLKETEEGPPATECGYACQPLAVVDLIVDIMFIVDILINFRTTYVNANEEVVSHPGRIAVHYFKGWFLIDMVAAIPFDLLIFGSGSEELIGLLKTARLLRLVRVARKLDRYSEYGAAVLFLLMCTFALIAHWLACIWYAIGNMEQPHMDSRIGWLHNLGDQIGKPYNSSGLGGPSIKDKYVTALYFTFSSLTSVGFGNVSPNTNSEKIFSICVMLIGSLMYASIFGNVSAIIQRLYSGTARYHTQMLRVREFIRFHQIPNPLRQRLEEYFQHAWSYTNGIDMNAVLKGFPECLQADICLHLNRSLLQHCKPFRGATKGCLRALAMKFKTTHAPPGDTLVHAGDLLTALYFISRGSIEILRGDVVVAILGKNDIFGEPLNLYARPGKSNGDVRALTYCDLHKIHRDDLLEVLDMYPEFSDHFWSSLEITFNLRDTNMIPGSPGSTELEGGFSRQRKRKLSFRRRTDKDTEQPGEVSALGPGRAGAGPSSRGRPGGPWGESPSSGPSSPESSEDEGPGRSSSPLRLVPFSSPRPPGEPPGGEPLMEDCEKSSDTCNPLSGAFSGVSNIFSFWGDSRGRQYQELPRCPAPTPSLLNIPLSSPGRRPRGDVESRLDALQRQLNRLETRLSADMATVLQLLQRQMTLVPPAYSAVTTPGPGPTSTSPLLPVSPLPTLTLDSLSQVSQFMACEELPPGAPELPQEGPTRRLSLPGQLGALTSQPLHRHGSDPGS
row,SMILES,"hERG current change (%, negative = inhibition) at 1uM [%]"
1,CCOc1ccccc1NC(=O)C1(S(=O)(=O)c2ccc(Cl)cc2)CC1,3.47
2,OCCNCCOc1ccccc1F,3.87
3,C=C(C)CSc1nc2nc(C)c(Br)cc2[nH]1,6.49
4,O=C(OCc1cc2ccccc2[nH]c1=O)c1ccco1,10.7
5,CCC(=O)NCCN1CCN(C(=O)CC)CC1,8.17
6,CCOc1ccc(N2C(=O)CN(CC(=O)OC)C2=S)cc1,3.72
7,Cc1ccc(OCC(=O)c2cc(C)n(C3CC3)c2C)c([N+](=O)[O-])n1,-7.47
8,O=C(Cc1c[nH]c2ccccc12)NCc1ccc(Cl)cc1Cl,1.33
9,CCOC(=O)C1(CC2CC2)CCN(C(=O)c2cccnc2C)CC1,7.55
10,Cc1nc2ncnn2c(N2CCCC(C(=O)Nc3ccccc3Br)C2)c1C (centres unmarked),-7.8
11,COc1ccc(NC(=O)C2CCC(CNS(=O)(=O)c3cccs3)CC2)cc1OC (centres unmarked),2.15
12,O=C(NCCCCCNC(=O)c1cccnc1)c1cccnc1,8.71
13,O=C(NC1CCN(Cc2ccccc2)CC1)C1CCN(S(=O)(=O)c2ccccc2)CC1,1.18
14,CCC(=O)c1ccc(OCC(O)CN(CCc2ccccc2)Cc2ccccc2)cc1.Cl (centres unmarked),8.54
15,CCOc1cc(C(=O)Nc2ccncc2)cc(OCC)c1OCC,11.3
16,Cc1ccccc1NC(=O)c1ccc(F)c(S(=O)(=O)NCC2CCCO2)c1 (centres unmarked),9.65
17,CC(=O)Nc1cccc(-c2csc(N)n2)c1,13.1
18,CCOc1ccc(OCC(=O)N(C)c2c(N)n(Cc3ccccc3)c(=O)[nH]c2=O)cc1,8.23
19,CCOC(=O)Cc1csc(NC(=O)CSc2nnnn2-c2ccc(C)cc2C)n1,13.8
20,CCOC(=O)c1c(Cc2ccc(Cl)cc2)c[nH]c1C,10.8
21,COc1cc(/C=C(\C#N)C(=O)NCC2CCCO2)c([N+](=O)[O-])cc1OC (centres unmarked),8.27
22,CCOCC(=O)Nc1ccccc1C(=O)OCC,-3.16
23,COc1ccc(CCNC(=O)C2CC(c3ccc(C(F)(F)F)cc3)=NO2)cc1 (centres unmarked),2.01

row,SMILES,"hERG current change (%, negative = inhibition) at 1uM [%]"
1,CCOC(=O)c1cc(C(O)(C(=O)OC)C(F)(F)F)c(/N=C/N(C)C)o1 (centres unmarked),3.28
2,CCOC(=O)C1(C)NC(c2ccc(N(C)C)cc2)C2C(=O)N(CC)C(=O)C21 (centres unmarked),11.8
3,CCOc1ccc(S(=O)(=O)N(CC)CC(=O)NC2CC2)cc1,-7.06
4,COC(=O)C1=C(C(=O)OC)[C@@H]2N(C)c3ccccc3[C@@]23C[C@@H](C(=O)OC)N(C(=O)c2cccs2)C3=N1,9.35
5,COc1ccc(-c2cc(=O)c3c(OC)c(OC)c(OC)cc3o2)cc1,11.6
6,O=C(CC(=O)Nc1ccccn1)Nc1ccccn1,10.9
7,Cn1c(CCNC(=O)c2cc(COc3ccc(F)c(F)c3)on2)nc2ccccc21,3.16
8,C/C(=N\NC(=O)c1cccc([N+](=O)[O-])c1)c1cccc(NC(=O)C2CC2)c1,10
9,CCOC(=O)c1ccc(NC(=O)CCOc2ccccc2)cc1,4.29
10,CC(C)CC1Nc2ncnc(N3CCCCC3)c2N(Cc2ccc(Br)cc2)C1=O.O=C(O)C(F)(F)F (centres unmarked),9.95
11,CCN1C(=O)/C(=C2/C=Cc3ccccc3N2C)OC1=S,12.2
12,CCCCN(C)Cc1c(O)ccc2c(=O)c(-c3ccccc3OC)coc12,12.3
13,Brc1cnc2nc(SCc3nc4ccccc4[nH]3)[nH]c2c1,7.45
14,NC(=O)c1ccc(NC(=O)CCCN2C(=O)NC3(CCCC3)C2=O)cc1,-2.15
15,Cc1ccc(C(=O)N2CCN=C2SCc2ccc([N+](=O)[O-])cc2)cc1C,4.48
16,Cc1ccc(-n2c(C)cn(C(=O)c3ccccc3)c2=S)cc1,26.6
17,O=C1c2ccccc2C(=O)N1CCCc1nc(-c2ccncc2)no1,9.92
18,Cc1cc(C)c(C)c(S(=O)(=O)N2CCNCC2)c1C,12.2
19,O=C(COc1ncnc2ccc(Br)cc12)N1CCOCC1,4.11
20,CCCCn1c(O)c(N=NC(=O)Cn2c(C(F)(F)F)nc3ccccc32)c2ccccc21,17.2
21,CS(=O)(=O)c1ccc(C(=O)Nc2cccc(-c3nc4ccccc4[nH]3)c2)cc1,15.2
22,O=C(Nc1ccccc1)C1=C[C@@H](c2ccc(Br)cc2)C[C@@H](OCc2ccc(CO)cc2)O1,14.7
23,C/C(CC(=O)Nc1ccc(C)cc1C)=N\NC(=O)C(C)C,0.252

row,SMILES,"hERG current change (%, negative = inhibition) at 1uM [%]"
1,S=C(Nc1ccccc1Cl)NC1CCC(NC(=S)Nc2ccccc2Cl)CC1 (centres unmarked),9.43
2,O=C(Cc1ccccc1[N+](=O)[O-])Nc1ccc(S(=O)(=O)N2CCCC2)cc1,9.52
3,C=CCc1ccc(OCCn2cncn2)c(OC)c1,13.6
4,O=C(NNS(=O)(=O)c1ccccc1)c1cccc(F)c1,14.7
5,CN(C)C=O.O=[N+]([O-])c1cccc(COc2ncnc3cc([N+](=O)[O-])ccc23)c1,0.401
6,Cc1cc(CNC(=O)CC2C(=O)NCCN2CC(c2ccccc2)c2ccccc2)on1 (centres unmarked),12.4
7,CN(C)C(CNc1ncnc2sccc12)c1ccccc1 (centres unmarked),12.7
8,Nc1nc(-c2ccccc2)cn1N,12.5
9,CCOc1ccc(-n2c(Cc3cc(=O)[nH]c(=O)[nH]3)nnc2SC(C)C(=O)OC)cc1 (centres unmarked),7.63
10,COc1cc(OC)cc(C(=O)N2CCN=C2SCc2cccnc2)c1,-1.17
11,CCC(CC)C(=O)c1c[nH]c(C(=O)NCc2ccco2)c1,-6.01
12,COc1ccc(NC(=O)C2C3C=CC4(O3)C2C(=O)N(CCN2CCCCC2)C4C(=O)NC2CCCC(C)C2C)cc1 (centres unmarked),20
13,Cc1ccc(NC(=O)COCC(=O)Nc2ccc(C)cc2)cc1,2.38
14,C/C(=N/NC(=O)CN1CCN(S(=O)(=O)c2ccc(C)cc2)CC1)c1ccco1,-17.3
15,O=C(/C=C/c1ccc([N+](=O)[O-])cc1)NCC1CCCO1 (centres unmarked),-5.23
16,COC(=O)c1cc2c(C(F)(F)F)nn(C)c2s1,15.5
17,CN1/C(=C/C=C(/C#N)C(N)=O)C(C)(C)c2ccccc21,-3.87
18,Cc1ccccc1OCC(=O)Nc1ccc(C(=O)Nc2ccccc2C(=O)O)cc1,6.07
19,COc1ccc(N(C(=O)Cc2cccs2)C(C(=O)NC2CCCC2)c2ccncc2)cc1 (centres unmarked),12
20,CCCn1nnnc1COc1ccc(C(N)=O)cc1,13.5
21,Cc1sc2ncnc(N3CCC(C(=O)Nc4ccc(S(N)(=O)=O)cc4)CC3)c2c1C,0.338
22,COc1ccc(C2CC(c3ccccc3)=NN2C(=O)COC(=O)c2ccc(S(C)(=O)=O)cc2)cc1 (centres unmarked),9.28
23,Cc1cccc(NS(=O)(=O)c2ccc3[nH]c(=O)cc(C(=O)O)c3c2)c1,9.99

row,SMILES,"hERG current change (%, negative = inhibition) at 1uM [%]"
1,CC(=O)Oc1cc(O)c2c(=O)c(OC(C)=O)c(-c3ccc(OC(C)=O)c(OC(C)=O)c3)oc2c1,12.5
2,C=Cn1ccnc1P(=S)(c1nccn1C=C)C1CCCCC1,-8.48
3,CC(NC(=S)Nc1ccc(S(N)(=O)=O)cc1)c1ccc2c(c1)OCO2 (centres unmarked),1.61
4,COC(=O)COC(=O)CC(CC(N)=O)c1ccccc1 (centres unmarked),14.5
5,O=C(/C=C/c1cccs1)N1CCC2(CC1)Oc1ccc(Cl)cc1C(=O)C21CC(c2cccnc2)=NO1 (centres unmarked),12.1
6,O=C(CCCCCCCCN1C(=O)c2ccccc2C1=O)N1CCOCC1,10.2
7,COc1ccc(OCc2nnc(SCC(=O)N3CCCC3)o2)cc1,13.6
8,Nc1nnc(-c2ccco2)s1,11.3
9,O=C(N/N=C/c1cc(Br)ccc1O)c1ccccc1Cl,8.01
10,O=C(C1c2ccccc2C(=O)N2CCc3ccccc3C12)N1CCC2(CC1)OCCO2 (centres unmarked),6.89
11,Cc1ccc(C(=O)COC(=O)Cc2ccccc2)cc1,7.96
12,Cc1ccc(OCC(=O)c2ccc3c(c2)CCCC3)cc1C,8.51
13,O=C(Nc1ccc(F)cc1)c1cccnn1,8.48
14,CCOc1c(S(=O)(=O)NC2CC(C)(C)NC(C)(C)C2)ccc(Cl)c1Cl,17.8
15,O=C(OCC(=O)N1CCOCC1)c1ccc(F)cc1Cl,29.1
16,O=C(Nc1ccc(Cl)cn1)c1ccc2c(c1)OCCO2,10.4
17,COc1ccc(-c2cc(-c3c(O)c(OC)c4occc4c3OC)[nH]n2)cc1,9.03
18,Cc1nn(CC(=O)Nc2cccc(C(F)(F)F)c2)c(=O)c2cccn12,-14.2
19,O=C(CN1C(=O)S/C(=C\c2ccccn2)C1=O)Nc1ccc(F)cc1,13.9
20,COc1ccc(C)cc1NC(=O)c1ccc2c(c1)C(=O)N(Cc1ccncc1)C2=O,-0.645
